Reference: the supplement of paper PMC10338343
± gives the standard deviation. Over roughly 6,600 sequences, “pre-steady-state target cleavage rate” has its median near 0.07; the highest 2% begin near 0.72. Only a part is listed here, and it is no random draw.

Tested on: MIWI (PIWIL1) piRISC loaded with Kctd7 piRNA (30 nt)
Assay: pre-steady-state target cleavage rate (min^-1); MIWI and MILI are mouse PIWI proteins and EfPiwi is from a freshwater sponge; tags in brackets are library labels; higher = faster piRNA-guided slicing of the target
Conditions: guide: Kctd7 piRNA 5'p-UGUUAAUCUCUCAGAGAAGGUGACAGUGAU; auxiliary factor: 500 nM mouse GTSF1
Summary of the method: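 Cleave-'n-Seq: a transcribed, DNA-blocked target RNA library (0.1 nM) was mixed with 1 nM active affinity-purified piRISC carrying one synthetic guide, with or without 500 nM GTSF1 partner protein, in HEPES–potassium acetate buffer at 33 °C for 0–8 or 0–960 min. Uncleaved targets were sequenced and normalised to depth and to weakly complementary targets. Three trials were pooled, and k3 was capped at 0.0001 min^-1. The pre-steady-state cleavage rate came from a burst-and-steady-state fit.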

Going from UAGUCUGACACCUUCUCUGAGAGAUUUACA to UAGACUGUCUGCUUCUCUGAGAGAUUAUGA, the “pre-steady-state target cleavage rate” value falls from 0.308 ± 0.04 to 0.0109 ± 0.003.

Going from UUCACUGAGACCUUCUCUGAGAGAUUAACA to UAGUGACAGACCUUCUCUGAGAGAAUUAACA, the “pre-steady-state target cleavage rate” value falls from 0.54 ± 0.022 to 0.025 ± 0.006.

First: UACAGUGUCACCUUCUCUGACAGAUUAACA
Second: UAGUGACAGUGCUUGCUCUGAGAGAUUAACA
The “pre-steady-state target cleavage rate” value of the first is higher: 0.467 ± 0.025 for the first, 0.0123 ± 0.0022 for the second.

UAGUGUGUCACCUUCUGUGUGAGAUUAACA and UAGUGACACACCAUCUCUGAGAGAUAAACA are within error of each other in “pre-steady-state target cleavage rate” value: 0.0844 ± 0.0075 for the first, 0.0901 ± 0.014 for the second.

Going from UAGUGAGUCACCUUCUGAGAGAGAUUAAGA to UAGACUAGUCACCUUCUCUGAGAGAUUAACA, the “pre-steady-state target cleavage rate” value rises from 0.0137 ± 0.0058 to 0.756 ± 0.049.

UUCACUGUCAUCCUUCUCUGAGAGAUUAACA and AUCUCUGUCACCUUCUCUGAGAGAUAAACA are within error of each other in “pre-steady-state target cleavage rate” value: 0.287 ± 0.016 for the first, 0.244 ± 0.028 for the second.

Compared with UAGACUGUCUCCUUCUCUGAGAGAAUAACA, UAGUCUGUCACCUACUCUGAGAGAUAAACA is lower in “pre-steady-state target cleavage rate” value: 0.455 ± 0.088 for the first, 0.299 ± 0.041 for the second.

Going from UAGUGACAGUGGAUCUCUGAGAGAUUCAACA to UAGUGUGUCACCUUGUCAGAGAGAUUAACA, the “pre-steady-state target cleavage rate” value rises from < 0.0001 to 0.0856 ± 0.0095.

Compared with UAGUGACACACCUUCUCUGAGAGAUUAAAA, UAGACUGUCACCUUCACUGAGAGAUUAUGA is higher in “pre-steady-state target cleavage rate” value: 0.169 ± 0.029 for the first, 0.248 ± 0.049 for the second.

Compared with UAGUGAGUCACGUUCUCUGAGACAUUAACA, UAGUGUGUCACCUUCUCUGAGAGAUUAAA is higher in “pre-steady-state target cleavage rate” value: 0.0472 ± 0.0078 for the first, 0.259 ± 0.04 for the second.

UAGUGAGUCACCUUCGCUGAGAGAUUAACA and UAGUGAGUCUCCUACUCUGAGAGAUUAACA are within error of each other in “pre-steady-state target cleavage rate” value: 0.282 ± 0.035 for the first, 0.241 ± 0.02 for the second.

AUCACUGUCACCUUCUCUGAGAAAUUAACA and UAGUGUGUCACCUUCUCUGUGAGAUUAACA are within error of each other in “pre-steady-state target cleavage rate” value: 0.257 ± 0.026 for the first, 0.26 ± 0.015 for the second.

First: UAGUGACACAACCUUCUCUGAGAGAUUAACA
Second: UAGUGACACACCUUCUCUCAGAGAUUAUGA
The “pre-steady-state target cleavage rate” value of the first is higher: 0.345 ± 0.029 for the first, 0.005 ± 0.004 for the second.

Compared with UAGUGACACACCUACUCUGACAGAUUAACA, UAGACUGAGACCUUCUCUGAGAGAUUAAGA is higher in “pre-steady-state target cleavage rate” value: 0.016 ± 0.003 for the first, 0.106 ± 0.016 for the second.

Compared with UAGUGACAGUCCUUGCUCUGAGAGAUUAACA, UAGUGAGUCACCUUCUCUGACAGAUAAACA is higher in “pre-steady-state target cleavage rate” value: 0.0279 ± 0.0047 for the first, 0.177 ± 0.05 for the second.

UUCACUGUCACCUUCUCUGAGAUGAUUAACA and UAGUCUGUCACCUUCUGUGAGAGAUUUACA are within error of each other in “pre-steady-state target cleavage rate” value: 0.0295 ± 0.0066 for the first, 0.0394 ± 0.0071 for the second.

Going from UAGACUGUCAUCCUUCUCUGAGAGAUUAACA to UAGUGUGUCACCUUCUCUGAGAGGUUAACA, the “pre-steady-state target cleavage rate” value falls from 0.262 ± 0.023 to 0.0968 ± 0.013.

Compared with UAGUGACUCAGCUUGUCUGAGAGAUUAACA, UAGUCUGUGUGCUUCUCUGAGAGAUUAACA is lower in “pre-steady-state target cleavage rate” value: 0.132 ± 0.021 for the first, 0.048 ± 0.0074 for the second.

UAGUGACACACGUUCUCUGACAGAUUAACA and UAGUGACUCACCAUGUCUGAGAGAUUAACA are within error of each other in “pre-steady-state target cleavage rate” value: 0.00564 ± 0.004 for the first, 0.0069 ± 0.003 for the second.

First: UAGUGUGUCACCUUCACUGAGACAUUAACA
Second: UAGUGAGUCACGUUCACUGAGAGAUUAACA
The “pre-steady-state target cleavage rate” value of the first is lower: 0.139 ± 0.022 for the first, 0.46 ± 0.026 for the second.

Compared with UUCACUGUCACCUUGUCUGAGAGAAUAACA, UACAGUGUCACCUUCUCAGAGAGAUUAACA is higher in “pre-steady-state target cleavage rate” value: 0.264 ± 0.067 for the first, 0.421 ± 0.026 for the second.

First: UAGUGACACACCUUCUCUGACAGAAUAACA
Second: UUGACUGUCACCUUCUCUGAGAGAUUAUGA
The “pre-steady-state target cleavage rate” value of the first is lower: 0.00829 ± 0.0033 for the first, 0.0851 ± 0.016 for the second.

Compared with UACACUGUCACCUUCUCCUGAGAGAUUAACA, UAGUGUCUCACCUUCUCUGAGAGAUAUUGA is lower in “pre-steady-state target cleavage rate” value: 0.115 ± 0.043 for the first, 0.0113 ± 0.0057 for the second.

First: UAGUGAGUCAGCUUCACUGAGAGAUUAACA
Second: UAGUGAGACACCUUGUCUGAGAGAUUAACA
The “pre-steady-state target cleavage rate” value of the first is higher: 0.424 ± 0.024 for the first, 0.142 ± 0.022 for the second.

Going from UAGUCUCUCACCUUCUCUGAGAGAUUUUGA to AUCUCUGUCACGUUCUCUGAGAGAUUAACA, the “pre-steady-state target cleavage rate” value rises from 0.0332 ± 0.014 to 0.657 ± 0.03.

Compared with UAGUGUGUCACCUUCUCAGACAGAUUAACA, UUCUGAGUCACCUUCUCUGAGAGAUUAACA is higher in “pre-steady-state target cleavage rate” value: 0.131 ± 0.012 for the first, 0.657 ± 0.059 for the second.

Going from UAGUGACUCACCUUCAGUGAGAGAUUAACA to UACACUGUCACCUUCUCUGAGAGAUUAUCA, the “pre-steady-state target cleavage rate” value rises from 0.0171 ± 0.0036 to 0.302 ± 0.043.

First: UAGUCUGUCACCUUCUCUCACAGAUUAACA
Second: UAGUGAGUCACCUUCUCUGAGAGAUCUAACA
The “pre-steady-state target cleavage rate” value of the first is lower: 0.0152 ± 0.0046 for the first, 0.2 ± 0.029 for the second.

UAGUGUGUCACCUUCUCAGUGAGAUUAACA and UUCACUGUCACCUUCUCUGACAGAUUUACA are within error of each other in “pre-steady-state target cleavage rate” value: 0.0358 ± 0.0077 for the first, 0.0247 ± 0.0078 for the second.

Going from UAGUGACAGUGCUUCUCUGUGAGAUUAACA to UAGUGACAGACCUUCUGUGAGAGAUUAAGA, the “pre-steady-state target cleavage rate” value rises from 0.00326 ± 0.0029 to 0.0177 ± 0.0059.

First: UAGUGACAGUCCUUCUCUGAGAGAUUACACA
Second: UAGACUGUCACCUUCUCAGAGAGUUUAACA
The “pre-steady-state target cleavage rate” value of the first is lower: 0.0118 ± 0.0037 for the first, 0.138 ± 0.02 for the second.

Going from UACACUGUCACCUUCUCUGAGAGAUUAAGCA to AUCACUGUCACCUUCUCUGAGAGUUUAACA, the “pre-steady-state target cleavage rate” value rises from 0.279 ± 0.041 to 0.426 ± 0.064.

Compared with UUCACUGUCACGUUCUCUGAGAGAUUAUCA, UACACUGUCACCUUCUCUGAGUGAAUAACA is lower in “pre-steady-state target cleavage rate” value: 0.275 ± 0.034 for the first, 0.0294 ± 0.012 for the second.

First: UAGACUGUCACCUUCUCUGAGUGAAUAACA
Second: UACACUGACACCUUCUCUGAGAGAUAAACA
The “pre-steady-state target cleavage rate” value of the first is lower: 0.00226 ± 0.0021 for the first, 0.246 ± 0.05 for the second.

First: UAGUGAGUCACCUUCUCUGAGAGAAAAAGA
Second: UACACUGUCAGCUUGUCUGAGAGAUUAACA
The “pre-steady-state target cleavage rate” value of the first is lower: 0.0187 ± 0.009 for the first, 0.562 ± 0.027 for the second.

UAGUGUGUCACCUACUCUGAGAGAUUAUCA and UAGACUGUCACUUCUCUGAGAGAUUAACA are within error of each other in “pre-steady-state target cleavage rate” value: 0.468 ± 0.07 for the first, 0.466 ± 0.041 for the second.

UAGUGAGUCACUCUUCUCUGAGAGAUUAACA and AUCACUGUCACCUUCUCUGAGAGAAUUACA are within error of each other in “pre-steady-state target cleavage rate” value: 0.32 ± 0.021 for the first, 0.428 ± 0.095 for the second.

Compared with UACACUGUCUCCUUCUCUGAGACAUUAACA, UUCACUGUCACCUUGUCUGAGAGAUUAUGA is higher in “pre-steady-state target cleavage rate” value: 0.0687 ± 0.0093 for the first, 0.362 ± 0.075 for the second.
